The supplement of paper PMC8728848
This is one part of the list.

How the values were obtained:
Assay in all cases: glycan array binding signal (z-score within array); higher = stronger binding
Conditions in all cases: glycan notation: IUPAC condensed, linker removed
[1] = target: Neu5Ac(a2-6)GlcNAc(b1-4)GlcNAc(b1-4)GlcNAc
Outline: (§1)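 Glycan array data were curated from 3228 arrays in the Consortium for Functional Glycomics database and kept only where the protein sequence was available. Glycan names were converted to IUPAC-condensed notation, and columns mapping to the same glycan were averaged. The binding signal is a within-array Z-score, averaged across arrays of the same protein sequence at different concentrations or buffers and across linkers. Negative Z-scores can be read as non-binding.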

[2] = target: Neu5Ac(a2-8)Neu5Ac
Outline: as §1

[3] = target: Neu5Ac(a2-8)Neu5Ac(a2-3)Gal(b1-3)GalNAc(b1-4)[Neu5Ac(a2-3)]Gal(b1-4)Glc
Outline: as §1

[4] = target: Neu5Ac(a2-8)Neu5Ac(a2-3)Gal(b1-3)GalNAc(b1-4)[Neu5Ac(a2-8)Neu5Ac(a2-3)]Gal(b1-4)Glc
Outline: as §1

[5] = target: Neu5Ac(a2-8)Neu5Ac(a2-3)Gal(b1-4)Glc
Outline: as §1

[6] = target: Neu5Ac(a2-8)Neu5Ac(a2-3)Gal(b1-4)GlcNAc
Outline: as §1

[7] = target: Neu5Ac(a2-8)Neu5Ac(a2-3)[Gal(b1-3)GalNAc(b1-4)]Gal(b1-4)Glc
Outline: as §1

[8] = target: Neu5Ac(a2-8)Neu5Ac(a2-3)[GalNAc(b1-4)]Gal(b1-4)Glc
Outline: as §1

[9] = target: Neu5Ac(a2-8)Neu5Ac(a2-8)Neu5Ac
Outline: as §1

[10] = target: Neu5Ac(a2-8)Neu5Ac(a2-8)Neu5Ac(a2-3)Gal(b1-4)Glc
Outline: as §1

[11] = target: Neu5Ac(a2-8)Neu5Ac(a2-8)Neu5Ac(a2-3)[Gal(b1-3)GalNAc(b1-4)]Gal(b1-4)Glc
Outline: as §1

[12] = target: Neu5Ac(a2-8)Neu5Ac(a2-8)Neu5Ac(a2-3)[GalNAc(b1-4)]Gal(b1-4)Glc
Outline: as §1

[13] = target: Neu5Ac(a2-8)Neu5Ac(a2-8)Neu5Ac(a2-8)Neu5Ac(a2-3)[GalNAc(b1-4)]Gal(b1-4)Glc
Outline: as §1

[14] = target: Neu5Ac(a2-8)Neu5Gc(a2-3)Gal(b1-4)GlcNAc
Outline: as §1

[15] = target: Neu5Ac(b2-6)Gal(b1-4)GlcNAc
Outline: as §1

[16] = target: Neu5Ac(b2-6)GalNAc
Outline: as §1

[17] = target: Neu5Ac9Ac(a2-3)Gal(b1-3)GlcNAc
Outline: as §1

[18] = target: Neu5Ac9Ac(a2-3)Gal(b1-4)GlcNAc
Outline: as §1

[19] = target: Neu5Ac9Ac(a2-6)Gal(b1-4)GlcNAc
Outline: as §1

[20] = target: Neu5Gc(a2-3)Gal(b1-3)GlcNAc
Outline: as §1

[21] = target: Neu5Gc(a2-3)Gal(b1-3)[Fuc(a1-4)]GlcNAc
Outline: as §1

[22] = target: Neu5Gc(a2-3)Gal(b1-4)Glc
Outline: as §1

[23] = target: Neu5Gc(a2-3)Gal(b1-4)GlcNAc
Outline: as §1

[24] = target: Neu5Gc(a2-3)Gal(b1-4)GlcNAc(b1-3)Gal(b1-4)GlcNAc(b1-2)Man(a1-3)[Neu5Gc(a2-3)Gal(b1-4)GlcNAc(b1-3)Gal(b1-4)GlcNAc(b1-2)Man(a1-6)]Man(b1-4)GlcNAc(b1-4)GlcNAc
Outline: as §1

[25] = target: Neu5Gc(a2-3)Gal(b1-4)[Fuc(a1-3)]GlcNAc
Outline: as §1

[26] = target: Neu5Gc(a2-6)Gal(b1-4)GlcNAc
Outline: as §1

[27] = target: Neu5Gc(a2-6)GalNAc
Outline: as §1

[28] = target: Neu5Gc(a2-8)Neu5Ac(a2-3)Gal(b1-4)GlcNAc
Outline: as §1

[29] = target: Neu5Gc(a2-8)Neu5Gc(a2-3)Gal(b1-4)GlcNAc
Outline: as §1

[30] = target: Neu5Gc(a2-8)Neu5Gc(a2-3)Gal(b1-4)GlcNAc(b1-3)Gal(b1-4)GlcNAc
Outline: as §1

[31] = target: Neu5Gc(a2-8)Neu5Gc(a2-6)Gal(b1-4)GlcNAc
Outline: as §1

[32] = target: Neu5Gc(b2-6)Gal(b1-4)GlcNAc
Outline: as §1

B1: MGL (Homo sapiens), Q8IUN9 (protein)
chain: MTRTYENFQYLENKVKVQGFKNGPLPLQSLLQRLCSGPCHLLLSLGLGLLLLVIICVVGFQNSKFQRDLVTLRTDFSNFTSNTVAEIQALTSQGSSLEETIASLKAEVEGFKQERQAGVSELQEHTTQKAHLGHCPHCPSVCVPVHSEMLLRVQQLVQDLKKLTCQVATLNNNASTEGTCCPVNWVEHQDSCYWFSHSGMSWAEAEKYCQLKNAHLVVINSREEQNFVQKYLGSAYTWMGLSDPEGAWKWVDGTDYATGFQNWKPGQPDDWQGHGLGGGEDCAHFHPDGRWNDDVCQRPYHWVCEAGLGQTSQESH
[1]
  glycan array binding signal (z-score): -0.247
[2]
  glycan array binding signal (z-score): -0.238
[3]
  glycan array binding signal (z-score): -0.236
[4]
  glycan array binding signal (z-score): -0.243
[5]
  glycan array binding signal (z-score): -0.25
[6]
  glycan array binding signal (z-score): -0.259
[7]
  glycan array binding signal (z-score): 0.408
[8]
  glycan array binding signal (z-score): 2.36
[9]
  glycan array binding signal (z-score): -0.244
[10]
  glycan array binding signal (z-score): -0.246
[11]
  glycan array binding signal (z-score): -0.237
[12]
  glycan array binding signal (z-score): 2.59
[13]
  glycan array binding signal (z-score): 3.54
[14]
  glycan array binding signal (z-score): -0.248
[15]
  glycan array binding signal (z-score): -0.244
[16]
  glycan array binding signal (z-score): -0.159
[17]
  glycan array binding signal (z-score): -0.248
[18]
  glycan array binding signal (z-score): -0.252
[19]
  glycan array binding signal (z-score): -0.239
[20]
  glycan array binding signal (z-score): -0.248
[21]
  glycan array binding signal (z-score): -0.244
[22]
  glycan array binding signal (z-score): -0.238
[23]
  glycan array binding signal (z-score): -0.249
[24]
  glycan array binding signal (z-score): -0.241
[25]
  glycan array binding signal (z-score): 0.195
[26]
  glycan array binding signal (z-score): -0.242
[27]
  glycan array binding signal (z-score): 0.748
[28]
  glycan array binding signal (z-score): -0.237
[29]
  glycan array binding signal (z-score): -0.24
[30]
  glycan array binding signal (z-score): -0.245
[31]
  glycan array binding signal (z-score): -0.246
[32]
  glycan array binding signal (z-score): -0.235
